Assay results as given in paper PMC4336329 (PLoS ONE, 2015).
In all, about 310,000 compounds went through this assay and about 14,000 (4.5%) showed an effect of 50% or more. Effects have a minus sign here. Some of the results follow.

These molecules were tested against human ether-à-go-go-related gene (hERG) potassium channel (human, UniProt Q12809) (assay: primary screen, population patch clamp on CHO cells stably expressing hERG).
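Also: peak tail current of the secondary pulse compared with the same well before compound.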

Chain of human ether-à-go-go-related gene (hERG) potassium channel (Q12809 whole entry, looked up): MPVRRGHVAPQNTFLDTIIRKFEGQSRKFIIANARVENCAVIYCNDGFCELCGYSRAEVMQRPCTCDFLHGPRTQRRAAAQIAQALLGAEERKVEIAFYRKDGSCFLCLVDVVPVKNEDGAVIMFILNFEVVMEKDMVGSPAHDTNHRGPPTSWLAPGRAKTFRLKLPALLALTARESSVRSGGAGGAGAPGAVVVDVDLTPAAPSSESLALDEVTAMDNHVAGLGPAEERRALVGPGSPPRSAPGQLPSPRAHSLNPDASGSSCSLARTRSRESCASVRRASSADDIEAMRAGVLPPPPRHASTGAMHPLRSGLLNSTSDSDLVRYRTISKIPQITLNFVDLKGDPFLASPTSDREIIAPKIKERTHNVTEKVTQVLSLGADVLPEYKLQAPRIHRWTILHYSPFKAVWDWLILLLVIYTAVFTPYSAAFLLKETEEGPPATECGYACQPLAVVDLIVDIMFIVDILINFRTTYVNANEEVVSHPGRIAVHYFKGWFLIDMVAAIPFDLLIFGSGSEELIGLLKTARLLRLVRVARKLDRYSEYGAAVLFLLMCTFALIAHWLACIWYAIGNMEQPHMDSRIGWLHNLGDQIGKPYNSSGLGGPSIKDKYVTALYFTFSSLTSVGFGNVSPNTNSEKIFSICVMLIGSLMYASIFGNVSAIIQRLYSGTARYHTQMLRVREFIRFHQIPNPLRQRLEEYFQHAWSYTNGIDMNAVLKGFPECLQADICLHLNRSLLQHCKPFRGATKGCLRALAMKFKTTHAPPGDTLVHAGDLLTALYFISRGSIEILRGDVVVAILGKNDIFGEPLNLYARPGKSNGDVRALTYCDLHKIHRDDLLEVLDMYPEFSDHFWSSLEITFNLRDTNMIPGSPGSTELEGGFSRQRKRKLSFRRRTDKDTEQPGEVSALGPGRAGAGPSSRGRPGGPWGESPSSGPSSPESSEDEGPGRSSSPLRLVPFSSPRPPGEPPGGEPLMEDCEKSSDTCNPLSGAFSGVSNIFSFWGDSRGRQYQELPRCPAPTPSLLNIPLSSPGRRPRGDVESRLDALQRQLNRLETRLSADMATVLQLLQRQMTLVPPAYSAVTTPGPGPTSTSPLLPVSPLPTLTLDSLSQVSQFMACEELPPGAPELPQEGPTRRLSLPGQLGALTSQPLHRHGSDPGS

Compared with `O=C(Oc1ccc(=O)n(-c2ccccc2)n1)c1ccc(Cl)cc1`, `Cc1cc(C(=O)Nc2ccc(F)cc2C)n(-c2ccccc2)n1` is higher in “hERG current change (%, negative = inhibition) at 10uM” value: 1.87% for the first, 12.6% for the second.

Going from `COc1ccc(C2CC(c3ccc(C)cc3)Nc3nc(N)nn32)cc1` (stereo not drawn) to `COc1ccc(CCNC(=O)CN2C(=O)c3ccccc3C2=O)cc1`, the “hERG current change (%, negative = inhibition) at 10uM” value rises from -14.5% to 16.1%.

First: O=C1CSCN1c1cc(Cl)ccc1Cl
Second: CC12CCC(=O)N1C(C(=O)Nc1ccc(Cl)c(Cl)c1)CS2 (stereo not drawn)
The “hERG current change (%, negative = inhibition) at 10uM” value of the first is higher: 3.86% for the first, -10.2% for the second.

Going from `COCCNC(=O)C(=O)Nc1ccc2c(c1)N(S(=O)(=O)c1cccs1)CCC2` to `CN1CCN(S(=O)(=O)c2cccc(C(=O)NCCOc3ccccc3)c2)CC1`, the “hERG current change (%, negative = inhibition) at 10uM” value falls from -1.44% to -17.5%.

First: O=C(/C=C/c1ccco1)NC(=S)Nc1cc(-c2nc3ccccc3s2)ccc1Cl
Second: COC(=O)c1ccccc1NC(=S)NC(=O)COc1ccccc1Cl
The “hERG current change (%, negative = inhibition) at 10uM” value of the first is higher: 1.95% for the first, -4.5% for the second.

Compared with `Cc1cc(C)n(CCc2nc3c4ccccc4n(CC#N)c(=O)n3n2)n1`, `Cc1c(C(=O)C(=O)NCCC2=CCCCC2)c2ccccc2n1C` is lower in “hERG current change (%, negative = inhibition) at 10uM” value: 4.73% for the first, 1.92% for the second.

First: CCCn1ncc(/C=N/O)c1C
Second: COc1ccc2c(c1)c(/C=N/Nc1ccc(C(=O)O)cc1)c(C)n2C
The “hERG current change (%, negative = inhibition) at 10uM” value of the first is lower: 17% for the first, 25.8% for the second.

Going from `CC(=Nc1cccc(O)c1)c1sc2ccccc2c1O` to `COC(=O)c1sc2ccccc2c1N`, the “hERG current change (%, negative = inhibition) at 10uM” value rises from 1.38% to 2.43%.

Going from `CCS(=O)(=O)Nc1cccc(C2=NN(C(C)=O)C(c3cccs3)C2)c1` (stereo not drawn) to `Cc1ccc2nc(-c3cccc(S(=O)(=O)N4CCCC4)c3)cn2c1`, the “hERG current change (%, negative = inhibition) at 10uM” value falls from 13.4% to 9.93%.

First: C[C@H](CCC(=O)O)[C@H]1CC[C@H]2[C@@H]3[C@@H](O)C[C@@H]4C[C@H](O)CC[C@]4(C)[C@H]3CC[C@]12C
Second: C[C@@H]1CC[C@]2(O[C@H](CCO)C[C@@H](O)[C@@H]2O)O1
The “hERG current change (%, negative = inhibition) at 10uM” value of the first is lower: -9.79% for the first, 0.536% for the second.

Compared with `O=C(CN1C(=O)c2ccccc2C1=O)NCc1ccc(C(=O)O)cc1`, `Cn1c(=O)c(C(=O)NCCc2ccc(Cl)cc2)c(O)c2ccccc21` is higher in “hERG current change (%, negative = inhibition) at 10uM” value: 6.49% for the first, 18.3% for the second.

Compared with `Cc1ccc(NC(=O)Cn2c(O)c(N=NC(N)=O)c3ccccc32)cc1`, `Cc1ccc(NC(=O)Cn2c(O)c(N=NC(N)=S)c3ccccc32)cc1` is higher in “hERG current change (%, negative = inhibition) at 10uM” value: -1.48% for the first, 20.7% for the second.

First: CCCNS(=O)(=O)c1cccc(C(=O)NNC(=O)c2cc(C)oc2C)c1
Second: CCOc1ccccc1C(=O)NCC(=O)NNC(=O)c1cccc(S(=O)(=O)Nc2ccc(OC)cc2)c1
The “hERG current change (%, negative = inhibition) at 10uM” value of the first is higher: 10.7% for the first, 5.97% for the second.

Going from `COc1ccc(S(=O)(=O)N2CCC(Cc3ccccc3)CC2)cc1C(N)=O` to `CCN1CCN(S(=O)(=O)c2ccc(Cl)c(C(=O)Nc3nnc(C)s3)c2)CC1`, the “hERG current change (%, negative = inhibition) at 10uM” value falls from 16.1% to -2.08%.

First: Cn1cc(C(=O)NC2CCCCC2)c(=O)c2cc(S(=O)(=O)N3CCOCC3)ccc21
Second: Cc1cc(C(F)F)n2ncc(C(=O)NC3CCCCCC3)c2n1
The “hERG current change (%, negative = inhibition) at 10uM” value of the first is higher: 11.8% for the first, -11.5% for the second.

First: COCCCNC(=O)CN(c1ccc(Cl)c(Cl)c1)S(C)(=O)=O
Second: Cc1ccc2c(c1)NC(=O)C(CC(=O)NCCCN1CCCC1=O)O2 (stereo not drawn)
The “hERG current change (%, negative = inhibition) at 10uM” value of the first is lower: -10.9% for the first, 16.5% for the second.

First: Cc1cc(-c2csc(NC(=O)c3ccc(=O)[nH]c3)n2)c(C)n1Cc1ccco1
Second: COc1ccc(S(=O)(=O)Nc2ccccc2C(=O)Nc2nc(-c3ccc(F)cc3)cs2)cc1OC
The “hERG current change (%, negative = inhibition) at 10uM” value of the first is higher: 13.1% for the first, -51.7% for the second.

Compared with `O=[N+]([O-])c1ccccc1S(=O)(=O)Nc1ncccn1`, `Nc1ncc(Br)cc1S(=O)(=O)Nc1ccccc1F` is lower in “hERG current change (%, negative = inhibition) at 10uM” value: 11.5% for the first, 3.85% for the second.

First: CCOC(=O)C1C(c2cccc(F)c2)NC(=S)NC1(O)C(F)(F)F (stereo not drawn)
Second: CCOc1ccc(C(C)NC(=O)c2cccc(F)c2)cc1 (stereo not drawn)
The “hERG current change (%, negative = inhibition) at 10uM” value of the first is lower: -14.4% for the first, 31.5% for the second.

Going from `Cc1ccc2cc(NC(=O)c3cccc(F)c3)ccc2n1` to `CC(C)(C)N(NC(=O)Nc1ccc(Cl)cc1)C(=O)c1ccccc1`, the “hERG current change (%, negative = inhibition) at 10uM” value rises from 0.701% to 7.3%.

First: COc1cccc(/C=N/N2CCN(C)CC2)c1.O=P(O)(O)O
Second: C/C=C(\C)CN1CCN(c2ccccc2)CC1
The “hERG current change (%, negative = inhibition) at 10uM” value of the first is higher: 3.1% for the first, -1.68% for the second.

Going from `Cc1ccc(F)cc1NC(=O)N1CCNC(=O)C1CC(=O)Nc1cc(Cl)ccc1Cl` (stereo not drawn) to `NC(=O)COc1ccc2cc(-c3ccc(F)cc3)c(=O)oc2c1`, the “hERG current change (%, negative = inhibition) at 10uM” value rises from 11% to 12%.

Compared with `Cc1ccc(CC(=O)O/N=C(\N)c2ccncc2)cc1`, `Cc1ccccc1OCC(=O)Nc1nnc(-c2ccncc2)s1` is higher in “hERG current change (%, negative = inhibition) at 10uM” value: 7.28% for the first, 12.9% for the second.

First: CC1CN=C(NCc2ccncc2)S1 (stereo not drawn)
Second: O=C(N/N=C/c1ccncc1)c1cc(Br)ccc1OCc1ccccc1
The “hERG current change (%, negative = inhibition) at 10uM” value of the first is higher: 10.3% for the first, -6.19% for the second.

Going from `CCOC(=O)c1c(NC(=O)COc2ncnc3sccc23)sc2c1CCC2` to `CNC(=O)COc1ccc2oc3c(c2c1)CCCC3`, the “hERG current change (%, negative = inhibition) at 10uM” value falls from 19.2% to 9.14%.

First: COC(=O)c1ccc(N2CCOCC2)c(NC(=O)c2ccc(Br)o2)c1
Second: CCN1C(=O)C(=Cc2ccc(N3CCOCC3)o2)C(=O)N(CC)C1=S
The “hERG current change (%, negative = inhibition) at 10uM” value of the first is lower: 7.34% for the first, 13.8% for the second.

Compared with `CCC(=O)N1c2ccccc2NC2=C(C(=O)CCC2)C1c1ccccc1` (stereo not drawn), `O=C1CN(C(=O)c2ccc(Cl)c([N+](=O)[O-])c2)c2ccccc2N1` is higher in “hERG current change (%, negative = inhibition) at 10uM” value: 12.6% for the first, 13.6% for the second.

Compared with `COc1ccnc2c1c(=O)n(Cc1cccc(F)c1)c(=O)n2C`, `COc1ccc(F)cc1S(=O)(=O)n1nc(C)cc1C` is lower in “hERG current change (%, negative = inhibition) at 10uM” value: 4.41% for the first, 1.04% for the second.

Compared with `O=C(Nc1nn[nH]n1)c1cc(-c2ccc(Cl)c(Cl)c2Cl)nc2ccccc12`, `C[n+]1ccc(C(=O)NCc2ccccc2)cc1.[I-]` is lower in “hERG current change (%, negative = inhibition) at 10uM” value: 33.7% for the first, 29.2% for the second.

Going from `N#Cc1ccccc1Cn1c(-c2cscn2)nc2ccccc21` to `O=C1c2ccccc2C(=O)N1CCc1nc(-c2cccnc2)no1`, the “hERG current change (%, negative = inhibition) at 10uM” value falls from -7.78% to -12.2%.

Compared with `COCCN1CCN(C(=O)C2CCC(=O)N(CCc3ccc(Cl)cc3)C2)CC1` (stereo not drawn), `O=C1CCCN1CCC1CCN(C(=S)Nc2ccc(F)cc2)CC1` is lower in “hERG current change (%, negative = inhibition) at 10uM” value: -17.6% for the first, -28.9% for the second.

Compared with `CC(CCN1CCN(c2ccccc2)CC1)c1ccccc1.Cl` (stereo not drawn), `Cc1[nH]n(-c2ccccc2)c(=O)c1N=Nc1ccccc1C(=O)N1CCCCC1` is higher in “hERG current change (%, negative = inhibition) at 10uM” value: -54.6% for the first, 28% for the second.

Going from `CC(=O)NC(CCS(C)(=O)=O)C(=O)Nc1c(C)cccc1C` (stereo not drawn) to `CCOC(=O)C(=CNc1cscc1S(=O)(=O)C(C)C)C(=O)OCC`, the “hERG current change (%, negative = inhibition) at 10uM” value falls from 8.22% to -5.63%.

Going from `Cc1cc2c(Nc3ccc(O)cc3)ncnc2s1.Cl` to `CCOc1ccc(OCCn2c(=S)[nH]c3c(N)ncnc32)cc1`, the “hERG current change (%, negative = inhibition) at 10uM” value rises from 6.2% to 13.9%.

Compared with `Cc1[nH]n(-c2nc(-c3ccccc3)cc(=O)[nH]2)c(=O)c1CCO`, `CSc1nnc(SCC(=O)N(C)c2c(N)n(Cc3ccccc3)c(=O)[nH]c2=O)s1` is lower in “hERG current change (%, negative = inhibition) at 10uM” value: 11.7% for the first, 5.79% for the second.

Compared with `CCN(CC)C(=O)C1CCC(CNS(=O)(=O)c2cccc3cccnc23)CC1` (stereo not drawn), `CCCCNC(=O)C1CCC(CNS(=O)(=O)c2ccc(C)cc2)CC1` (stereo not drawn) is lower in “hERG current change (%, negative = inhibition) at 10uM” value: 4.52% for the first, -0.562% for the second.

Compared with `Cc1cc(NCCCN2CCOCC2)n2ncc(-c3ccc(Cl)cc3)c2n1`, `CCOCCCn1c(SCC(=O)NC2CCCC2)nc2ccccc2c1=O` is lower in “hERG current change (%, negative = inhibition) at 10uM” value: 0.66% for the first, -1.74% for the second.

First: Cn1c(=O)c2c3c(sc2n2c(SCC(N)=O)nnc12)CC(C(C)(C)C)CC3 (stereo not drawn)
Second: CSc1nc(SCC(=O)NCC2CCCO2)c2c3c(sc2n1)CN(C)CC3 (stereo not drawn)
The “hERG current change (%, negative = inhibition) at 10uM” value of the first is lower: -0.432% for the first, 13% for the second.

Compared with `COc1ccc(C(=O)OCC(=O)Nc2ccc3[nH]c(=O)[nH]c3c2)cc1`, `CCOc1ccc(N2C(=O)c3ccc(C(=O)OCc4c(C)noc4C)cc3C2=O)cc1` is higher in “hERG current change (%, negative = inhibition) at 10uM” value: 1.19% for the first, 15.5% for the second.

Compared with `C#CCOC(=O)/C(=C/c1ccc(F)cc1)NC(C)=O`, `CCOC(=O)CN(C(=O)CSc1nnc(CNc2ccc(F)cc2)o1)c1ccccc1` is lower in “hERG current change (%, negative = inhibition) at 10uM” value: 0.0487% for the first, -35.3% for the second.

First: O=C(CSc1nnc(NC(=O)c2c(F)cccc2F)s1)NC1CCCC1
Second: Cc1csc2nc(O)c(C(=O)NC3CCCCCC3)c(=O)n12
The “hERG current change (%, negative = inhibition) at 10uM” value of the first is higher: 2.94% for the first, -8.49% for the second.

Compared with `O=C(NC1CCCC1)C1CC(=O)N(c2ccccc2)C1` (stereo not drawn), `Cc1nc2ccccc2c(=O)n1C1CCCCCC1` is lower in “hERG current change (%, negative = inhibition) at 10uM” value: 15.9% for the first, -7.64% for the second.

Compared with `CCOC(=O)c1sc(Nc2nc(OC)cc(OC)n2)nc1C`, `Cc1cc(NC(=O)CSc2nnnn2C2CCCC2)no1` is higher in “hERG current change (%, negative = inhibition) at 10uM” value: -24.5% for the first, 6.19% for the second.

Compared with `CCN(CC)S(=O)(=O)c1ccc(/C=C/C(=O)OCC(=O)Nc2cccc3ccccc23)cc1`, `CCN(CC)c1ccc(C(=O)N/N=C(\C)c2cccnc2)cc1` is higher in “hERG current change (%, negative = inhibition) at 10uM” value: 4.49% for the first, 7.66% for the second.

Going from `COc1ccc(OC)c(-n2c(O)c(C=Nc3c(C)n(C)n(-c4ccccc4)c3=O)c(=O)[nH]c2=O)c1` to `CN1CCC(N(CCc2ccccc2)C(=O)CCC(=O)O)CC1`, the “hERG current change (%, negative = inhibition) at 10uM” value falls from 21.7% to -1.87%.
